Results: article PMC4336329 (PLoS ONE, 2015)
Hit rate of the full screen: of about 310,000 compounds, about 2,200 (0.71%) showed an effect of 50% or more. Effects have a minus sign here. The list shows a part of the results.

The compounds below were run against human ether-à-go-go-related gene (hERG) potassium channel (human, UniProt Q12809) (assay: primary screen, population patch clamp on CHO cells stably expressing hERG).
Sequence of human ether-à-go-go-related gene (hERG) potassium channel (Q12809 whole entry, looked up): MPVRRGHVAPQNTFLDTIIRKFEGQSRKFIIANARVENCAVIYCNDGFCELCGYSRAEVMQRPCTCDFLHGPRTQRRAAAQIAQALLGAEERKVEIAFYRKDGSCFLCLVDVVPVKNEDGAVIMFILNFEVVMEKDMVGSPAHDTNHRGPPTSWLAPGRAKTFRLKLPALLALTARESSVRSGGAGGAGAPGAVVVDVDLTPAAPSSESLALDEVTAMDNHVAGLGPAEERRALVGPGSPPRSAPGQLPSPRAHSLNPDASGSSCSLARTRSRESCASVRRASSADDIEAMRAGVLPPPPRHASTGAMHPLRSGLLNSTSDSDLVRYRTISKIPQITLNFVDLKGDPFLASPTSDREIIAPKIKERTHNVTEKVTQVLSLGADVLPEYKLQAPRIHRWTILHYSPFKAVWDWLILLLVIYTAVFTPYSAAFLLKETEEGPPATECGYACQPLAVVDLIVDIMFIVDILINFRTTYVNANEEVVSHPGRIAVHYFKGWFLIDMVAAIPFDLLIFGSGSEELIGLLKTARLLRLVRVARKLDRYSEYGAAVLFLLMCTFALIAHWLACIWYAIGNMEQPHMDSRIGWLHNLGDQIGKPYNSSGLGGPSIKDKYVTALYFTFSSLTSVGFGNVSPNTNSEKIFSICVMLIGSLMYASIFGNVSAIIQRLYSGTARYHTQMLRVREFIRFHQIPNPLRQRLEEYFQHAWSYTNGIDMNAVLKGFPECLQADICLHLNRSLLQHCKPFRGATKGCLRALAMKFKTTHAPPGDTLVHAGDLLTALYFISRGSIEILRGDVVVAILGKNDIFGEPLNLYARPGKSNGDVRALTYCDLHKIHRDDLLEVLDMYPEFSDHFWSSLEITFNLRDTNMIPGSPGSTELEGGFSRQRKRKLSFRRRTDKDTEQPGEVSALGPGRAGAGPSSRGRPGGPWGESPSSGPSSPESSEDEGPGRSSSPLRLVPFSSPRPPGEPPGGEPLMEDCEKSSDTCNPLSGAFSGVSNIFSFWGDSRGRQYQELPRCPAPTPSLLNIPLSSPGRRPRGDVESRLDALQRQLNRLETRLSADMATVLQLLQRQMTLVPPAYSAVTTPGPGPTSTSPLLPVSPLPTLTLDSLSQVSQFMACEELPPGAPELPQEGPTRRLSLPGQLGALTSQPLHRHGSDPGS

Point of comparison: `Cc1ccc(NC(=O)CNc2ccc(Cl)cc2F)cc1`, “hERG current change (%, negative = inhibition) at 1uM” value 8.46%. Against it:
- Cc1cccc(/C=C/c2nc3ccccc3c(=O)[nH]2)c1 — lower, 4.14%
- O=C(Nc1ccc(NC(=O)C2CC2)nc1)c1ccncc1 — lower, 5.32%
- Cc1ccc(C(=O)COc2ccccc2-c2ccccc2)cc1C — lower, 7.86%
- CC(=O)c1ccc(OCc2cc(C(=O)N(C)C(C)c3ccon3)no2)cc1 (stereo not shown) — higher, 9.27%
- Cc1cc(C)n(C(C)CC(=O)N2CCc3ccccc32)n1 (stereo not shown) — lower, 4.42%
- O=C(NC(N1CCOCC1)C(Cl)(Cl)Cl)c1ccco1 (stereo not shown) — higher, 14.9%
- NC(=O)c1sc2nc3c(c(-c4cccs4)c2c1N)CCCCC3 — lower, 2.41%
- Cn1nnnc1Sc1ncnc2scc(-c3ccc([N+](=O)[O-])cc3)c12 — lower, 6.24%
- COc1ccc(OC)c2[nH]c(=O)c(CCNC(=O)C(=O)c3c(C)[nH]c4ccccc34)cc12 — higher, 12%
- CC(C)CC(=O)N1CCC(N2CCN(c3ccccc3)CC2)CC1 — lower, 4.37%
- CC(=O)Nc1ccc(Nc2ccc(N3C(=O)CCCC3=O)cc2[N+](=O)[O-])cc1 — lower, 5.23%
- CCOC(=O)c1c(C)[nH]c(C(=O)CN2C(=O)NC(C)(CC(C)C)C2=O)c1C (stereo not shown) — higher, 16.3%
- CCN1CCN(S(=O)(=O)c2ccc(Cl)nc2)CC1 — lower, 6.86%
- COc1cc(/C=N/NC(=O)CCc2ccccc2)ccc1O — lower, 2.47%
- CC(=O)c1ccc(OCC(=O)OC(C)C(=O)NC2CCCCC2C)cc1 (stereo not shown) — higher, 14.2%
- O=S(=O)(c1ccc(Br)cc1)c1nc(-c2ccccc2)oc1N1CCOCC1 — lower, 4.55%
- CCCC(C)NS(=O)(=O)c1ccc(OC)c(C)c1 (stereo not shown) — lower, 3.11%
- CCN(CC)S(=O)(=O)c1cc(NC(=O)C2CCN(c3ncnc4sc(C)c(C)c34)CC2)ccc1Cl — higher, 23.5%
- O=C(Nc1ccccc1Oc1cccnc1)C1CCCN(Cc2ccc(F)cc2)C1 (stereo not shown) — lower, 4.04%
- O=C(N/N=C/c1cn(CCOc2ccccc2)c2ccccc12)c1ccncc1 — lower, 2.66%
- [N-]=[N+]=CC(=O)C(Cc1ccccc1)N1C(=O)c2ccccc2C1=O (stereo not shown) — higher, 11.6%
- COc1ccccc1NC(=O)Cn1cnc2c(nc3n2CCCCC3)c1=O — higher, 14.5%
- O=C(CN1CCN(S(=O)(=O)c2ccccc2)CC1)Nc1ccc([N+](=O)[O-])cc1 — lower, -42.2%
- C=CCn1c(O)c(C2=c3ccccc3=NC2=O)c2ccccc21 — higher, 14%
- O=C(Nc1cc([N+](=O)[O-])ccc1C(=O)NCCN1CCOCC1)c1ccccc1 — lower, -12%
- Cc1cccnc1NC(=O)c1ccc(Br)o1 — higher, 27.6%
- COc1cccc(NC(=O)C(NC2CCCC2)c2ccccc2)c1 (stereo not shown) — lower, 0.871%
- COC(=O)CCC(=O)N1CCCC(N2CCN(c3cccc(C(F)(F)F)c3)CC2)C1 (stereo not shown) — lower, -4.1%
- Cc1ccccc1CSc1nnc(-c2cccnc2)n1N — lower, 4.59%
- O=C(OCc1nc2ccsc2c(=O)[nH]1)c1ccccc1 — higher, 11.8%
- O=C(c1cc(S(=O)(=O)N2CCOCC2)ccc1Cl)N1CCc2ccccc2C1 — lower, 3.08%
- COc1cc2c(cc1OC)C(Nc1ccc(S(N)(=O)=O)cc1)=NC(C)(C)C2 — lower, 0.0307%
- O=S(=O)(c1ccccc1)c1nc(-c2cccc(Cl)c2)oc1N1CCOCC1 — higher, 15.1%
- COc1ccc(/C=N/NC(=O)C(Cc2c[nH]c3ccccc23)NC(=O)OCC(C)C)cc1[N+](=O)[O-] (stereo not shown) — higher, 14.3%
- CCOc1ccccc1CNC(=O)CCn1ccc2cc(S(=O)(=O)N3CCCCC3)ccc21 — higher, 15.5%
- CCOC(=O)c1[nH]c(C)c(C(=O)OCC(=O)NCc2ccc(Cl)cc2)c1C — lower, 3.29%
- O=C(CN(CCc1ccccc1)C(=O)CNS(=O)(=O)c1ccc(F)cc1)NCc1ccco1 — lower, 2.71%
- COc1ccc(NS(=O)(=O)c2cccc(C(=O)NCC3CCCO3)c2)cc1 (stereo not shown) — lower, 5.65%
- COC(=O)c1cn(-c2ccccc2)nc1-c1ccc(OC)c(OC)c1 — higher, 18.5%
- Cc1ccc(N=Cc2c(C)[nH]n(-c3nc4ccccc4[nH]3)c2=O)cc1 — higher, 13.3%
- Nc1nc2n(n1)C(c1cccs1)CC(c1ccc(F)cc1)N2 (stereo not shown) — lower, 5.77%
- Cc1ccc(NC(=O)CC2S/C(=N/N=C/C=C/c3ccccc3)NC2=O)cc1Cl (stereo not shown) — higher, 18.6%
- O=C1NC(=O)C(CCc2ccncc2)(CCc2ccncc2)C(=O)N1Cc1ccccc1 — lower, -43.4%
- COc1ccc(C(=O)Nc2nc3ccccc3s2)cc1 — higher, 17.1%
- COc1ccc(OC)c(Nc2nc(N)c([N+](=O)[O-])c(NCc3ccccc3)n2)c1 — higher, 13.2%
- CCc1nc2c(oc3ccccc32)c(=O)[nH]1 — higher, 10.7%
- COc1ccc(N(CC(=O)Nc2c(C)n(C)n(-c3ccccc3)c2=O)S(=O)(=O)c2ccc(C)cc2)cc1OC — higher, 10.7%
- O=C(Nc1cccs1)Nc1cccnc1Cl — higher, 12.8%
- Cc1[nH]cnc1CN1CCc2c(c3ccccc3n2C)C1=O.Cl — lower, 1.5%
- Cc1ccc(S(=O)(=O)N[C@H](C(=O)OCn2nnc3ccccc3c2=O)C(C)C)cc1 — higher, 12.3%
- Cc1cc2oc(=O)c3c(c2cc1OC(=O)c1ccco1)CCCC3 — higher, 14.4%
- Cc1ccccc1-c1nc(CN(C)C(C)c2ccon2)c(C)o1 (stereo not shown) — higher, 18.2%
- Cc1cc(O)cc(O)c1C(=O)Cc1cnn(-c2ccccc2)c1 — lower, 5.27%
- Cc1cccc(N2CCN(S(=O)(=O)c3ccc4c(c3)NC(=O)CS4)CC2)c1C — higher, 13.8%
